Source: US20140212423A1 (AbbVie / Abbott, published 2014)

Legend:
[1] = target: T1, mouse Transferrin Receptor overexpressed on Hek 293 cells (mouse, UniProt Q62351); assay: MSD-ECL assay, column headed IC50 (values match the cell-based mTfR binding EC50 of Table 7)
T1 construct: whole, on cells; also called Hek293/mTfR; 293/mTFR

[2] = target: T1, mouse Transferrin Receptor …; assay: cell-based MSD-ECL binding on Hek293 cells overexpressing mouse TfR
Description: Meso-scale Discovery (MSD) Electrochemiluminescesnce (ECL) assays to screen for antibodies or DVDs that bind a desired target antigen expressed on the cell surface were performed as follows: Hek 293 cells overexpressing mouse Transferin Receptor were added onto MSD 96-well plates (MSD Cat# L11 XB-3, lot#2290-EA) which were blocked using blocking buffer (30% FBS Serum (Hyclone) in PBS) at 37° C. for 1 hr. After incubating at RT for 30 min with mild agitation, plates were washed with DPBS 3 times and Abs/DVDs (10,000 ng/ml) were added. After incubating for 1 hr at RT, plates were washed 3 times with DPBS and 25 ul of Goat anti human Sulfo TAG (MSD Cat# R32AC-, Lot# W001162) at 1 μg/ml is added. Following a 1 h incubation at RT for 1 hr, plates are washed and MSD read buffer is added before reading on MSD SECTOR Imager 6000. EC50 values are obtained using Xlfit4 software package

T1 sequence (Q62351 whole entry): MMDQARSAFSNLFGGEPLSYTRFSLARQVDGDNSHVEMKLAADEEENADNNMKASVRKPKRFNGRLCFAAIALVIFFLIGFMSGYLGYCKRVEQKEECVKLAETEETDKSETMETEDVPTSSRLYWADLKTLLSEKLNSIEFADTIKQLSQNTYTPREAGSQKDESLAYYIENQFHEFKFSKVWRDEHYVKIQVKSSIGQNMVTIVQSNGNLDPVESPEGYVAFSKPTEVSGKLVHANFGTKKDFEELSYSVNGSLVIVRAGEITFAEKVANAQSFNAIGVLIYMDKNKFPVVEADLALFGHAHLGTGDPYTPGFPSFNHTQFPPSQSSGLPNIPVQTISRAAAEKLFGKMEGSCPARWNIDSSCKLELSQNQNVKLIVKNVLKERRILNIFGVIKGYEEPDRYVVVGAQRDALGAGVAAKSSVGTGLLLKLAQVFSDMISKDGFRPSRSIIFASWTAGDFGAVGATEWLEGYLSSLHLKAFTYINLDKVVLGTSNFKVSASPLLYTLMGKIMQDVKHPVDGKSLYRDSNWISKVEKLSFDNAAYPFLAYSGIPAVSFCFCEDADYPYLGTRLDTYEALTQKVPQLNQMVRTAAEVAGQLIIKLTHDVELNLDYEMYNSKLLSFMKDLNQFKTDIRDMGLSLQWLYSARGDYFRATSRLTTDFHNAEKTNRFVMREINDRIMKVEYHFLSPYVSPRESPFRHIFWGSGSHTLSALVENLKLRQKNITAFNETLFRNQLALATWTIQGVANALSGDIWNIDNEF

IC50 [1]: 0.1 nM | EC50 [2]: 0.11 nM
B1: DVD2575 (bispecific antibody)
VH: EVQLVESGGGLVQPGNSLTLSCVASGFTFSNYGMHWIRQAPKKGLEWIAMIYYDSSKMNYADTVKGRFTISRDNSKNTLYLEMNSLRSEDTAMYYCAVPTSHYVVDVWGQGVSVTVSSASTKGP[sequence of about 120 residues omitted]
VL: DIQMTQSPASLSASLEEIVTITCQASQDIGNWLAWYQQKPGKSPQLLIYGATSLADGVPSRFSGSRSGTQFSLKISRVQVEDIGIYYCLQAYNTPWTFGGGTKLELKRTVAAP[sequence of about 100 residues omitted]
notes: DVD-Ig; also called TfRSSHer2 DVD2575

IC50 [1]: 3.4 nM | EC50 [2]: 3.4 nM
B2: DVD2576 (bispecific antibody)
VH: [sequence of about 120 residues omitted]ASTKGPEVQLVESGGGLVQPGNSLTLSCVASGFTFSNYGMHWIRQAPKKGLEWIAMIYYDSSKMNYADTVKGRFTISRDNSKNTLYLEMNSLRSEDTAMYYCAVPTSHYVVDVWGQGVSVTVSS
VL: [sequence of about 100 residues omitted]RTVAAPDIQMTQSPASLSASLEEIVTITCQASQDIGNWLAWYQQKPGKSPQLLIYGATSLADGVPSRFSGSRSGTQFSLKISRVQVEDIGIYYCLQAYNTPWTFGGGTKLELKR
notes: DVD-Ig, outer AB004 (Her2), inner AB221 (TfR), HG-short/LK-short; dual variable regions only; constant regions not assigned; also called Her2SSTfR DVD2576

One block for each binder: values may come before it.
